32 sequences from paper PMC12820563 can be followed below.

This is one part of the list. The list includes weakly bound sequences.

The experiment has as its target T1, MBP-FoxP3dN (UniProt Q99JB6).
T1 sequence: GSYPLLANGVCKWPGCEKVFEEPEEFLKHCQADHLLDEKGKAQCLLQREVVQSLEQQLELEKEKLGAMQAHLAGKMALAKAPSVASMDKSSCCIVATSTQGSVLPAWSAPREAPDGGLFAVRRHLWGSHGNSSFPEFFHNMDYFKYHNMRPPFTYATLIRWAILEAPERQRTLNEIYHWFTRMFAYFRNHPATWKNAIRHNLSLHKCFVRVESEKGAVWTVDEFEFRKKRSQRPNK
As to the kind of experiment: PD-seq (MBP pull-down with sequencing). The note with it: 20 mM Tris-HCl pH 7.5, 100 mM NaCl, 1.5 mM MgCl2, 0.4 uM protein, 0.1 uM dsDNA library, 30 min, room temperature, amylose pull-down; high values mean tight binding; double strand, one strand shown.
As for “GATGATTGTTCTCCCAGCTGATGAATTAGTATTGTCGAGTAAACAAATTTTCCTAATCTTTCTGTTCAAGCGCCATCTAC”, the binding signal (RPM ratio (pull-down/input)) is 3.56. On to “GATGATTGTTCTCCCAGCTGATGAATTCCTGGCTTCGAGTAAACAAATTTTCCTAATCTTTCTGTTCAAGCGCCATCTAC”, for which the binding signal (RPM ratio (pull-down/input)) is 0.243. Consider “GATGATTGTTCTCCCAGCTGATGAATTTTTTGTCTCGAGTAAACAAATTTTCCTAATCTTTCTGTTCAAGCGCCATCTAC”, for which the binding signal (RPM ratio (pull-down/input)) worked out at 0.367.

With “GATGATTGTTCTCCCAGCTGATGAATTTCAGTGCTCGAGTAAACAAATTTTCCTAATCTTTCTGTTCAAGCGCCATCTAC”, the binding signal (RPM ratio (pull-down/input)) was 0.505.

Take “GATGATTGTTCTCCCAGCTGATGAATTGCCTTTATCGAGTAAACAAATTTTCCTAATCTTTCTGTTCAAGCGCCATCTAC”: the binding signal (RPM ratio (pull-down/input)) is 1.14.

Take “GATGATTGTTCTCCCAGCTGATGAATTCCCTCCGTCGAGTAAACAAATTTTCCTAATCTTTCTGTTCAAGCGCCATCTAC”: the binding signal (RPM ratio (pull-down/input)) turned out to be 0.215.

Regarding “GATGATTGTTCTCCCAGCTGATGAATTACATAAGTCGAGTAAACAAATTTTCCTAATCTTTCTGTTCAAGCGCCATCTAC”, the binding signal (RPM ratio (pull-down/input)) is 0.353. Next, “GATGATTGTTCTCCCAGCTGATGAATTGCGCTTCTCGAGTAAACAAATTTTCCTAATCTTTCTGTTCAAGCGCCATCTAC”: 2.93. Next, “GATGATTGTTCTCCCAGCTGATGAATTAGTCCAGTCGAGTAAACAAATTTTCCTAATCTTTCTGTTCAAGCGCCATCTAC”: 0.27; “GATGATTGTTCTCCCAGCTGATGAATTACCGTAATCGAGTAAACAAATTTTCCTAATCTTTCTGTTCAAGCGCCATCTAC”: 0.591. Next, “GATGATTGTTCTCCCAGCTGATGAATTTTTACTATCGAGTAAACAAATTTTCCTAATCTTTCTGTTCAAGCGCCATCTAC”: 0.364; “GATGATTGTTCTCCCAGCTGATGAATTTGCGGCCTCGAGTAAACAAATTTTCCTAATCTTTCTGTTCAAGCGCCATCTAC”: 1.11.

As to “GATGATTGTTCTCCCAGCTGATGAATTAGGATTTTCGAGTAAACAAATTTTCCTAATCTTTCTGTTCAAGCGCCATCTAC”, the binding signal (RPM ratio (pull-down/input)) turned out to be 0.445. For the sequence “GATGATTGTTCTCCCAGCTGATGAATTATGGAACTCGAGTAAACAAATTTTCCTAATCTTTCTGTTCAAGCGCCATCTAC”, the binding signal (RPM ratio (pull-down/input)) came to 0.315. Regarding “GATGATTGTTCTCCCAGCTGATGAATTGCAAAAGTCGAGTAAACAAATTTTCCTAATCTTTCTGTTCAAGCGCCATCTAC”, the binding signal (RPM ratio (pull-down/input)) was 0.476. As to “GATGATTGTTCTCCCAGCTGATGAATTACCAGATTCGAGTAAACAAATTTTCCTAATCTTTCTGTTCAAGCGCCATCTAC”, the binding signal (RPM ratio (pull-down/input)) worked out at 0.275. On to “GATGATTGTTCTCCCAGCTGATGAATTAATTTAGTCGAGTAAACAAATTTTCCTAATCTTTCTGTTCAAGCGCCATCTAC”, for which the binding signal (RPM ratio (pull-down/input)) was 1.73.

In the case of “GATGATTGTTCTCCCAGCTGATGAATTATGTTCGTCGAGTAAACAAATTTTCCTAATCTTTCTGTTCAAGCGCCATCTAC”, the binding signal (RPM ratio (pull-down/input)) amounted to 1.13.

As to “GATGATTGTTCTCCCAGCTGATGAATTACAGAGCTCGAGTAAACAAATTTTCCTAATCTTTCTGTTCAAGCGCCATCTAC”, the binding signal (RPM ratio (pull-down/input)) is 0.252. Next, “GATGATTGTTCTCCCAGCTGATGAATTATTGGGGTCGAGTAAACAAATTTTCCTAATCTTTCTGTTCAAGCGCCATCTAC”: 0.552; “GATGATTGTTCTCCCAGCTGATGAATTGACGGTCTCGAGTAAACAAATTTTCCTAATCTTTCTGTTCAAGCGCCATCTAC”: 0.417; “GATGATTGTTCTCCCAGCTGATGAATTAAACCATTCGAGTAAACAAATTTTCCTAATCTTTCTGTTCAAGCGCCATCTAC”: 0.478. Next, “GATGATTGTTCTCCCAGCTGATGAATTGTGCCCCTCGAGTAAACAAATTTTCCTAATCTTTCTGTTCAAGCGCCATCTAC”: 2.74; “GATGATTGTTCTCCCAGCTGATGAATTGCACTGGTCGAGTAAACAAATTTTCCTAATCTTTCTGTTCAAGCGCCATCTAC”: 0.65. Next, “GATGATTGTTCTCCCAGCTGATGAATTCCAGCTCTCGAGTAAACAAATTTTCCTAATCTTTCTGTTCAAGCGCCATCTAC”: 0.322. For “GATGATTGTTCTCCCAGCTGATGAATTATATTCCTCGAGTAAACAAATTTTCCTAATCTTTCTGTTCAAGCGCCATCTAC”, the binding signal (RPM ratio (pull-down/input)) stood at 0.694. Next, “GATGATTGTTCTCCCAGCTGATGAATTAATAACCTCGAGTAAACAAATTTTCCTAATCTTTCTGTTCAAGCGCCATCTAC”: 0.362; “GATGATTGTTCTCCCAGCTGATGAATTCTGTTACTCGAGTAAACAAATTTTCCTAATCTTTCTGTTCAAGCGCCATCTAC”: 2.49. Next, “GATGATTGTTCTCCCAGCTGATGAATTGGCATTTTCGAGTAAACAAATTTTCCTAATCTTTCTGTTCAAGCGCCATCTAC”: 3.38; “GATGATTGTTCTCCCAGCTGATGAATTAAATATCTCGAGTAAACAAATTTTCCTAATCTTTCTGTTCAAGCGCCATCTAC”: 0.602.

“GATGATTGTTCTCCCAGCTGATGAATTTTTCTATTCGAGTAAACAAATTTTCCTAATCTTTCTGTTCAAGCGCCATCTAC”: the binding signal (RPM ratio (pull-down/input)) was 0.294. Next, “GATGATTGTTCTCCCAGCTGATGAATTAAAAGCCTCGAGTAAACAAATTTTCCTAATCTTTCTGTTCAAGCGCCATCTAC”: 0.437.
